The list shows a part of the results. Further columns of the screen follow, without active or inactive calls.
Key:
Assay in all cases: Primary Screen for Target Class Profiling of Small Molecule Inhibitors of Methyltransferases
[1] = biological target: Glycine N-methyltransferase (Homo sapiens) (UniProt Q14749); details: purified enzyme, MTase-Glo SAH luminescence; measured here: GNMT inhibition; at 40 µM; stronger effect = lower value
Outline: (§1)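 Each enzyme was assayed with SAM and its substrate. SAH formation detected by MTase-Glo luminescence; single-point 40 uM screen[…].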

[2] = biological target: Guanidinoacetate N-methyltransferase (Homo sapiens) (UniProt Q14353); details: purified enzyme, MTase-Glo SAH luminescence; measured here: GAMT inhibition; at 40 µM; stronger effect = lower value
Outline: as §1

[3] = biological target: Histamine N-methyltransferase (Homo sapiens) (UniProt P50135); details: purified enzyme, MTase-Glo SAH luminescence; measured here: HNMT inhibition; at 40 µM; stronger effect = lower value
Outline: as §1

[4] = biological target: Nicotinamide N-methyltransferase (Homo sapiens) (UniProt P40261); details: purified enzyme, MTase-Glo SAH luminescence; measured here: NNMT inhibition; at 40 µM; stronger effect = lower value
Outline: as §1

[5] = biological target: Phenylethanolamine N-methyltransferase (Homo sapiens) (UniProt P11086); details: purified enzyme, MTase-Glo SAH luminescence; measured here: PNMT inhibition; at 40 µM; stronger effect = lower value
Outline: as §1
% is scaled to controls: 0 for no effect and ±100 for the full control effect.

Row | SMILES | activity change, negative = inhibition [1] | activity change, negative = inhibition [2] | activity change, negative = inhibition [3] | activity change, negative = inhibition [4] | activity change, negative = inhibition [5]
1 | CCCCN1C(=O)c2cc(C(=O)N3CCN(CCC)CC3)nn2CC1(C)C(=O)NC1CCCC1 (stereo not given) | 5.72% | 0% | 9.21% | 3.52% | 2.55%
2 | CC(C)N(C)Cc1nnnn1CC(=O)N1CCC(CCn2cccn2)CC1 | 1.83% | 0.236% | 0.462% | 3.8% | 8.98%
3 | COc1ccc(OC)c(NC(=O)c2sc(=S)n3c2[nH]c(=O)c2ccc(Cl)cc23)c1 | -19.8% | 0.502% | -16.9% | -12.5% | -67.9%
4 | Cc1ccccc1CNC(=O)CNC(=O)C1(C)Cn2c(cc3ccccc32)C(=O)N1C (stereo not given) | 0.285% | 0% | 11.6% | 3.78% | 3.27%
5 | COc1ccc2cc3n(c2c1)CC(C)(C(=O)NC1CCCCC1)N(Cc1ccc(C)cc1)C3=O (stereo not given) | 4.02% | 1.36% | 8.18% | 1.1% | 2.07%
6 | CCOC(=O)[C@H]1O[C@@H]1C(=O)N[C@@H](CC(C)C)C(=O)NCCC(C)C | -4.56% | -9.25% | 9.58% | -11.8% | 2.16%
7 | Cc1ccc(C(=O)Cn2nc3n(CCC(C)C)c(=O)c4ccc(C(=O)NC5CCCC5)cc4n3c2=O)cc1 | 4.31% | 4.82% | 4.44% | 0.553% | 0.386%
8 | Cc1nc(-c2ccc(CNC(=O)CN3CCN(c4ncccn4)CC3)cc2)no1 | -3.63% | -0.382% | -0.108% | -1.21% | -3.36%
9 | CCOc1ccc(CCN2C(=O)c3cc(C(=O)OC)nn3CC2(C)C(=O)NC2CCCCC2)cc1 (stereo not given) | 5.12% | 0.735% | 11.9% | 6.07% | 4.78%
10 | C[C@]1(CO)[C@H]2Cc3sc(-c4ccsc4)nc3[C@@H](CC(=O)NCc3ccco3)[C@]2(C)CC[C@H]1O | -12.2% | -11.3% | -5.62% | -6.52% | -1.79%
11 | CC(=O)Nc1ccc(OCC(=O)NCc2ccccc2C)nc1 | -4.56% | -5.4% | -7.73% | -9.72% | -9.78%
12 | CC(C)(C)c1cc2n(n1)CC(C)(C(=O)NC1CCCCC1)N(Cc1ccc(Cl)cc1)C2=O (stereo not given) | -6.5% | -2.57% | -2.69% | -8.4% | -4.82%
13 | COc1ccc(C(=O)NC[C@H]2Cn3ccnc3CO2)cc1 | -1.92% | -3.99% | -2.88% | -3.41% | 5.33%
14 | CC1(C(=O)NCc2ccccc2)Cn2cnc(C(=O)N3CCc4ccccc43)c2C(=O)N1C1CC1 (stereo not given) | -0.365% | 0% | 0.947% | 9.08% | 5.88%
15 | COc1ccc(-c2cc3n(n2)CC(C)(C(=O)NCc2ccccc2)N(CCc2ccco2)C3=O)cc1 (stereo not given) | 8.28% | 0.726% | 7.69% | 10% | 2.95%
16 | CC1=C2CC(=O)C(C)CC/C=C(\C)CC2(O)OC1=O (stereo not given) | 3.49% | 4.93% | 7.86% | -8.47% | 0.445%
17 | CCCN1C(=O)c2cc(C(=O)NCc3ccc(OC)cc3)nn2CC1(C)C(=O)NC1CCCC1 (stereo not given) | 1.95% | 0% | 2.68% | 4.67% | 0.117%
18 | CCN1CCN(Cc2ccc(NC(=O)Nc3ccc(Oc4cc(NC)ncn4)cc3)cc2C(F)(F)F)CC1 | 1.05% | 4.1% | -76.8% | -17.1% | -8.43%
19 | CNCCc1cnc(CCC(c2ccccc2)c2ccccc2)[nH]1 | -24.2% | 12.6% | -25.6% | -17.7% | 12.5%

Row | SMILES | activity change, negative = inhibition [1] | activity change, negative = inhibition [2] | activity change, negative = inhibition [3] | activity change, negative = inhibition [4] | activity change, negative = inhibition [5]
20 | CN(C)Cc1nnc(C2CC(NC(=O)c3cc(-c4cccn4C)n[nH]3)C2)n1C (stereo not given) | -7.7% | -5.1% | -0.867% | -10.3% | -4.21%
21 | CCn1c(CO)nnc1C1CC(NC(=O)c2ccc3nc(C)oc3c2)C1 (stereo not given) | -2.81% | -5.83% | -1.45% | -6.8% | -3.1%
22 | COc1ccc(-c2cc(C(=O)NCC3CC3)c3c(C4CCCN4)noc3n2)cc1 (stereo not given) | -8.44% | -9.9% | -17.9% | -20.7% | -11.5%
23 | COc1cccc(CNc2nc3c(S(=O)(=O)c4ccccc4)nnn3c3ccccc23)c1 | 2.54% | 0.072% | 8.44% | -8.82% | 2.66%
24 | CCN1C(=O)c2cc(C(=O)NCc3ccccc3F)nn2CC1(C)C(=O)NC1CCCC1 (stereo not given) | 8.69% | 0.33% | 0.068% | 11.3% | 7.74%
25 | Cc1n[nH]c(C)c1C(N)C(=O)NCc1ccccc1-n1ccnc1C (stereo not given) | -1.32% | -6.83% | -12% | -3.38% | 1.31%
26 | Cc1cc(C(=O)N2CCC(OCC3CC3)C2)n(C)n1 (stereo not given) | -0.358% | 1.85% | 2.11% | -1.31% | -0.458%
27 | CN(CC1(C)CCOCC1)C(=O)c1ccccn1 | -3.75% | -5.25% | -3.01% | -10.9% | -6.09%
28 | CC(=O)N1CCC(CC(=O)N2C[C@@H](Oc3ccccc3)C[C@H]2C(=O)N2CCOCC2)CC1 | -1.15% | -2.41% | 1.75% | -2.43% | -9.29%
29 | CCCCc1oc2ccc(NS(C)(=O)=O)cc2c1C(=O)c1ccc(OCCCN(CCCC)CCCC)cc1 | 1.1% | 6.39% | -4.7% | -17% | 1.57%
30 | CCN1C(=O)c2cc3ccccc3n2CC1(C)C(=O)NCC(=O)NCc1ccc(F)cc1 (stereo not given) | -3.79% | 0% | 2.15% | -1.65% | 0.188%
31 | CC(=O)N[C@H](C(=O)O)C(C)(C)SN=O | -0.641% | 5.42% | -0.381% | -2.58% | 4.65%
32 | Cc1cc2c(cc3n2CC(C)(C(=O)NC2CCCCCC2)N(CCN(CC(C)C)CC(C)C)C3=O)o1 (stereo not given) | -8.15% | 2.9% | -5.79% | -6.5% | -11.3%
33 | Cc1cc(C(=O)NC2CC(c3cc(=O)[nH]cn3)C2)cc(S(N)(=O)=O)c1C (stereo not given) | -6.39% | -4.09% | -0.603% | -8.48% | -3.83%
34 | C=C1[C@@H](C2=CC(=O)OC2)CC[C@@]2(O)[C@@H]1CC1[C@H]2CC[C@@H]2C[C@@H](O[C@H]3O[C@@H](C)[C@@H](O[C@@H]4O[C@H](CO[C@@H]5O[C@H](CO)[C@@H](O)[C@H](O)[C@H]5O)[C@@H](O)[C@H](O)[C@H]4O)[C@H](OC)[C@H]3O)CC[C@]12C (stereo not given in full) | 4.88% | 2.55% | 7.27% | -8.07% | 0.819%
35 | CCCn1c(=O)c2ccc(C(=O)NC(C)C)cc2n2c(SCc3cccc(F)c3)nnc12 | 0.493% | 3.07% | -0.733% | 0.072% | -3.1%
36 | OC[C@@H]1CNC[C@H]1c1nc(C2CC2)no1 | -4.54% | -3.56% | -1.06% | -7.68% | -11.3%
37 | COC(=O)c1ncn2c1C(=O)N(Cc1ccccc1Cl)C(C)(C(=O)NCc1ccccc1)C2 (stereo not given) | -1.4% | 0% | 4.32% | 5.2% | 1.81%
